B1: FOXN3, O00409 (protein)
chain: MGPVMPPSKKPESSGISVSSGLSQCYGGSGFSKALQEDDDLDFSLPDIRLEEGAMEDEELTNLNWLHESKNLLKSFGESVLRSVSPVQDLDDDTPPSPAHSDMPYDARQNPNCKPPYSFSCLIFMAIEDSPTKRLPVKDIYNWILEHFPYFANAPTGWKNSVRHNLSLNKCFKKVDKERSQSIGKGSLWCIDPEYRQNLIQALKKTPYHPHPHVFNTPPTCPQAYQSTSGPPIWPGSTFFKRNGALLQDPDIDAASAMMLLNTPPEIQAGFPPGVIQNGARVLSRGLFPGVRPLPITPIGVTAAMRNGITSCRMRTESEPSCGSPVVSGDPKEDHNYSSAKSSNARSTSPTSDSISSSSSSADDHYEFATKGSQEGSEGSEGSFRSHESPSDTEEDDRKHSQKEPKDSLGDSGYASQHKKRQHFAKARKVPSDTLPLKKRRTEKPPESDDEEMKEAAGSLLHLAGIRSCLNNITNRTAKGQKEQKETTKN
B2: SOX7, Q9BT81 (protein)
chain: MASLLGAYPWPEGLECPALDAELSDGQSPPAVPRPPGDKGSESRIRRPMNAFMVWAKDERKRLAVQNPDLHNAELSKMLGKSWKALTLSQKRPYVDEAERLRLQHMQDYPNYKYRPRRKKQAKRLCKRVDPGFLLSSLSRDQNALPEKRSGSRGALGEKEDRGEYSPGTALPSLRGCYHEGPAGGGGGGTPSSVDTYPYGLPTPPEMSPLDVLEPEQTFFSSPCQEEHGHPRRIPHLPGHPYSPEYAPSPLHCSHPLGSLALGQSPGVSMMSPVPGCPPSPAYYSPATYHPLHSNLQAHLGQLSPPPEHPGFDALDQLSQVELLGDMDRNEFDQYLNTPGHPDSATGAMALSGHVPVSQVTPTGPTETSLISVLADATATYYNSYSVS
B3: CDX2, Q99626 (protein)
chain: MYVSYLLDKDVSMYPSSVRHSGGLNLAPQNFVSPPQYPDYGGYHVAAAAAAAANLDSAQSPGPSWPAAYGAPLREDWNGYAPGGAAAAANAVAHGLNGGSPAAAMGYSSPADYHPHHHPHHHPHHPAAAPSCASGLLQTLNPGPPGPAATAAAEQLSPGGQRRNLCEWMRKPAQQSLGSQVKTRTKDKYRVVYTDHQRLELEKEFHYSRYITIRRKAELAATLGLSERQVKIWFQNRRAKERKINKKKLQQQQQQQPPQPPPPPPQPPQPQPGPLRSVPEPLSPVSSLQASVPGSVPGVLGPTGGVLNPTVTQ
B4: ERG, P11308 (protein)
chain: MASTIKEALSVVSEDQSLFECAYGTPHLAKTEMTASSSSDYGQTSKMSPRVPQQDWLSQPPARVTIKMECNPSQVNGSRNSPDECSVAKGGKMVGSPDTVGMNYGSYMEEKHMPPPNMTTNERRVIVPADPTLWSTDHVRQWLEWAVKEYGLPDVNILLFQNIDGKELCKMTKDDFQRLTPSYNADILLSHLHYLRETPLPHLTSDDVDKALQNSPRLMHARNTGGAAFIFPNTSVYPEATQRITTRPDLPYEPPRRSAWTGHGHPTPQSKAAQPSPSTVPKTEDQRPQLDPYQILGPTSSRLANPGSGQIQLWQFLLELLSDSSNSSCITWEGTNGEFKMTDPDEVARRWGERKSKPNMNYDKLSRALRYYYDKNIMTKVHGKRYAYKFDFHGIAQALQPHPPESSLYKYPSDLPYMGSYHAHPQKMNFVAPHPPALPVTSSSFFAAPNPYWNSPTGGIYPNTRLPTSHMPSHLGTYY
B5: ARNTL2, Q8WYA1 (protein)
chain: MAAEEEAAAGGKVLREENQCIAPVVSSRVSPGTRPTAMGSFSSHMTEFPRKRKGSDSDPSQSGIMTEKVVEKLSQNPLTYLLSTRIEISASSGSRVEDGEHQVKMKAFREAHSQTEKRRRDKMNNLIEELSAMIPQCNPMARKLDKLTVLRMAVQHLRSLKGLTNSYVGSNYRPSFLQDNELRHLILKTAEGFLFVVGCERGKILFVSKSVSKILNYDQASLTGQSLFDFLHPKDVAKVKEQLSSFDISPREKLIDAKTGLQVHSNLHAGRTRVYSGSRRSFFCRIKSCKISVKEEHGCLPNSKKKEHRKFYTIHCTGYLRSWPPNIVGMEEERNSKKDNSNFTCLVAIGRLQPYIVPQNSGEINVKPTEFITRFAVNGKFVYVDQRATAILGYLPQELLGTSCYEYFHQDDHNNLTDKHKAVLQSKEKILTDSYKFRAKDGSFVTLKSQWFSFTNPWTKELEYIVSVNTLVLGHSEPGEASFLPCSSQSSEESSRQSCMSVPGMSTGTVLGAGSIGTDIANEILDLQRLQSSSYLDDSSPTGLMKDTHTVNCRSMSNKELFPPSPSEMGELEATRQNQSTVAVHSHEPLLSDGAQLDFDALCDNDDTAMAAFMNYLEAEGGLGDPGDFSDIQWTL
B6: HMOX1, P09601 (protein)
chain: MERPQPDSMPQDLSEALKEATKEVHTQAENAEFMRNFQKGQVTRDGFKLVMASLYHIYVALEEEIERNKESPVFAPVYFPEELHRKAALEQDLAFWYGPRWQEVIPYTPAMQRYVKRLHEVGRTEPELLVAHAYTRYLGDLSGGQVLKKIAQKALDLPSSGEGLAFFTFPNIASATKFKQLYRSRMNSLEMTPAVRQRVIEEAKTAFLLNIQLFEELQELLTHDTKDQSPSRAPGLRQRASNKVQDSAPVETPRGKPPLNTRSQAPLLRWVLTLSFLVATVAVGLYAM
B7: MXD1, Q05195 (protein)
chain: MAAAVRMNIQMLLEAADYLERREREAEHGYASMLPYNNKDRDALKRRNKSKKNNSSSRSTHNEMEKNRRAHLRLCLEKLKGLVPLGPESSRHTTLSLLTKAKLHIKKLEDCDRKAVHQIDQLQREQRHLKRQLEKLGIERIRMDSIGSTVSSERSDSDREEIDVDVESTDYLTGDLDWSSSSVSDSDERGSMQSLGSDEGYSSTSIKRIKLQDSHKACLGL
B8: ATF2, P15336 (protein)
chain: MKFKLHVNSARQYKDLWNMSDDKPFLCTAPGCGQRFTNEDHLAVHKHKHEMTLKFGPARNDSVIVADQTPTPTRFLKNCEEVGLFNELASPFENEFKKASEDDIKKMPLDLSPLATPIIRSKIEEPSVVETTHQDSPLPHPESTTSDEKEVPLAQTAQPTSAIVRPASLQVPNVLLTSSDSSVIIQQAVPSPTSSTVITQAPSSNRPIVPVPGPFPLLLHLPNGQTMPVAIPASITSSNVHVPAAVPLVRPVTMVPSVPGIPGPSSPQPVQSEAKMRLKAALTQQHPPVTNGDTVKGHGSGLVRTQSEESRPQSLQQPATSTTETPASPAHTTPQTQSTSGRRRRAANEDPDEKRRKFLERNRAAASRCRQKRKVWVQSLEKKAEDLSSLNGQLQSEVTLLRNEVAQLKQLLLAHKDCPVTAMQKKSGYHTADKDDSSEDISVPSSPHTEAIQHSSVSTSNGVSSTSKAEAVATSVLTQMADQSTEPALSQIVMAPSSQSQPSGS
B9: PRKD1, Q15139 (protein)
chain: MSAPPVLRPPSPLLPVAAAAAAAAAALVPGSGPGPAPFLAPVAAPVGGISFHLQIGLSREPVLLLQDSSGDYSLAHVREMACSIVDQKFPECGFYGMYDKILLFRHDPTSENILQLVKAASDIQEGDLIEVVLSASATFEDFQIRPHALFVHSYRAPAFCDHCGEMLWGLVRQGLKCEGCGLNYHKRCAFKIPNNCSGVRRRRLSNVSLTGVSTIRTSSAELSTSAPDEPLLQKSPSESFIGREKRSNSQSYIGRPIHLDKILMSKVKVPHTFVIHSYTRPTVCQYCKKLLKGLFRQGLQCKDCRFNCHKRCAPKVPNNCLGEVTINGDLLSPGAESDVVMEEGSDDNDSERNSGLMDDMEEAMVQDAEMAMAECQNDSGEMQDPDPDHEDANRTISPSTSNNIPLMRVVQSVKHTKRKSSTVMKEGWMVHYTSKDTLRKRHYWRLDSKCITLFQNDTGSRYYKEIPLSEILSLEPVKTSALIPNGANPHCFEITTANVVYYVGENVVNPSSPSPNNSVLTSGVGADVARMWEIAIQHALMPVIPKGSSVGTGTNLHRDISVSISVSNCQIQENVDISTVYQIFPDEVLGSGQFGIVYGGKHRKTGRDVAIKIIDKLRFPTKQESQLRNEVAILQNLHHPGVVNLECMFETPERVFVVMEKLHGDMLEMILSSEKGRLPEHITKFLITQILVALRHLHFKNIVHCDLKPENVLLASADPFPQVKLCDFGFARIIGEKSFRRSVVGTPAYLAPEVLRNKGYNRSLDMWSVGVIIYVSLSGTFPFNEDEDIHDQIQNAAFMYPPNPWKEISHEAIDLINNLLQVKMRKRYSVDKTLSHPWLQDYQTWLDLRELECKIGERYITHESDDLRWEKYAGEQGLQYPTHLINPSASHSDTPETEETEMKALGERVSIL
B10: TRIM40, Q6P9F5 (protein)
chain: MIPLQKDNQEEGVCPICQESLKEAVSTNCGHLFCRVCLTQHVEKASASGVFCCPLCRKPCSEEVLGTGYICPNHQKRVCRFCEESRLLLCVECLVSPEHMSHHELTIENALSHYKERLNRRSRKLRKDIAELQRLKAQQEKKLQALQFQVDHGNHRLEAGPESQHQTREQLGALPQQWLGQLEHMPAEAARILDISRAVTQLRSLVIDLERTAKELDTNTLKNAGDLLNRSAPQKLEVIYPQLEKGVSELLLQPPQKL
B11: ZMYM5, Q9UJ78 (protein)
chain: MEKCSVGGLELTEQTPALLGNMAMATSLMDIGDSFGHPACPLVSRSRNSPVEDDDDDDDVVFIESIQPPSISAPAIADQRNFIFASSKNEKPQGNYSVIPPSSRDLASQKGNISETIVIDDEEDIETNGGAEKKSSCFIEWGLPGTKNKTNDLDFSTSSLSRSKTKTGVRPFNPGRMNVAGDLFQNGEFATHHSPDSWISQSASFPSNQKQPGVDSLSPVALLRKQNFQPTAQQQLTKPAKITCANCKKPLQKGQTAYQRKGSAHLFCSTTCLSSFSHKRTQNTRSIICKKDASTKKANVILPVESSKSFQEFYSTSCLSPCENNWNLKKGVFNKSRCTICSKLAEIRHEVSVNNVTHKLCSNHCFNKYRLANGLIMNCCEHCGEYMPSKSTGNNILVIGGQQKRFCCQSCINEYKQMMETKSKKLTASENRKRNAFREENEKQLYGSSNTLLKKIEGIPEKKEKTSQLQLSVECGTDTLLIQENVNLPPSSTSTIADTFQEQLEEKNFEDSIVPVVLSADPGTWPRILNIKQRDTLVENVPPQVRNFNFPKDNTGRKFSETYYTRILPNGEKTTRSWLLYSTSKDSVFCLYCKLFGEGKNQLKNENGCKDWQHLSHILSKHEESEMHVNNSVKYSKLKSDLKKNKAIDAAEHRLYENEKNDGVLLLYT

The list shows a part of the results. Binding of human transcription factors and regulators to the viral nucleoprotein by AlphaScreen, crude cell-free proteins, amounts not normalised, one pass. Fold of the Venus control; higher = more signal. No active / inactive call. Single-pass screen; sequences are the whole Swiss-Prot entries looked up by name.

This assay concerns the target nucleoprotein N of Crimean-Congo hemorrhagic fever virus. In words: AlphaScreen luminescence signal relative to Venus negative control (fold); higher = stronger binding to CCHFV N. As to the method:
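AlphaScreen binding of cell-free made, FLAG-GST-tagged human transcription factors and regulators (crude translation products) to biotinylated N protein; signal as fold of the FLAG-GST-Venus control. One pass.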
Molecule B1 had an AlphaScreen luminescence signal of 1.86.

For the molecule B2, the AlphaScreen luminescence signal is 4.28.

On to B3, for which the AlphaScreen luminescence signal was 2.65.

Molecule B4 registered an AlphaScreen luminescence signal of 2.88.

In turn, B5 displayed an AlphaScreen luminescence signal of 2.28.

On to B6, for which the AlphaScreen luminescence signal stood at 2.56.

Turning to B7, the AlphaScreen luminescence signal is 4.37.

Turning to B8, the AlphaScreen luminescence signal is 2.05.

As for B9, the AlphaScreen luminescence signal stood at 11.

For B10, the AlphaScreen luminescence signal stood at 1.12.

Regarding B11, the AlphaScreen luminescence signal is 1.35.

The values are drawn from the supplement of paper PMC12423691.
